# Measurements from ChEMBL document CHEMBL4888484, “Replenishing the malaria drug discovery pipeline: Screening and hit evaluation of the MMV Hit Generation Library 1 (HGL1) against asexual blood stage Plasmodium falciparum ,using a nano luciferase reporter read-out” (2022).
# In all, about 150,000 compounds went through this assay and about 540 (0.36%) showed an effect of 50% or more. Some of the results follow.
# System: Plasmodium falciparum
# Test: Primary screen in NF54 nanoGlo assay, in single point, at 2uM, 72h; a lower Z score goes with more inhibition
# Assay type: functional, Erythrocyte
# Settings: timepoint 72 hour
SMILES,% Inhibition [%],Z score
COc1ccc(F)cc1S(=O)(=O)N1CC2(C[C@@H](C(=O)N3CCCC3)N(C)C2)C1,-20,2.32
Cc1ccc(-c2nc(C(=O)NCc3ccc(Cl)cc3)no2)cc1,12,-1.07
C=C[C@H]1CC[C@@]2(c3ccccc3)CC(=O)N(Cc3ccccc3)[C@@H]12,-43,5.02
Cc1nc(N2CCC(N[C@@H]3COC4(CCCC4)C3)CC2)c2ccsc2n1,-2,0.35
Cn1nccc1CCN(CCO)Cc1cccc(Br)c1,1,-0.14
CCOC(=O)C1CCN(C(=O)c2ccc(-n3cccn3)nn2)CC1,-10,1.88
CC1CCC(NC(=O)COCC(=O)NC2CCC(C)CC2)CC1 (stereo not drawn),-13,1.2
O=C1CO[C@H]2CCN(S(=O)(=O)CCc3cccc(Cl)c3)C[C@@H]2N1,17,-2.01
COc1ccc(C(=O)N2c3ncnn3C(c3ccccc3)CC2C)cc1 (stereo not drawn),33,-3.76
CCCN1CCC[C@H](Nc2ccncc2F)C1,-10,1.86
COc1cccc(S(=O)(=O)N2CCc3[nH]cnc3C2)c1,-13,1.49
CNC(=O)Cc1ccc(Cl)cc1Cl,-9,1.16
COc1ccc(-c2ccc(CN3CCN(C)CC3)cn2)cc1C,5,-0.7
Cc1ncc2c(n1)CC[C@H](NC(=O)c1ccc3c(c1)CC(C)(C)O3)C2,30,-3.44
O=C(c1noc2c1CCCC2)N1CCN(c2ccc(-n3cncn3)nn2)CC1,21,-2.61
CCC(C)N(Cc1ccsc1)CC(O)COCC(C)C (stereo not drawn),3,-0.41
COc1cccc(CNC(=O)CCc2ccc3c(ccn3C)c2)c1,-12,1.37
Cc1[nH]c(=O)c(C(=O)N2CCN([C@H]3CCCC[C@@H]3O)CC2)c(C)c1Cl,-20,2.74
CC(=O)Nc1c(-c2ccccn2)nsc1C(=O)NCc1cccc(Cl)c1,-12,2.11
CO[C@@H](C)c1nc(C2CCOCC2)nn1Cc1ccc2c(c1)OCO2,-8,1.1
CC(C(=O)N1CC(C(C)C)c2ccccc21)c1cnccn1 (stereo not drawn),-2,0.26
C[C@H](O)CNC(=O)Cn1nc(-c2ccccc2)n(CCc2ccccc2)c1=O,-3,0.56

SMILES,% Inhibition [%],Z score
CN1CC2(C1)CN(Cc1ccccc1)C[C@@H]1COCCN12,-14,2.46
N#CC[C@]1(O)CCN(S(=O)(=O)c2c[nH]c3ncc(Br)cc23)C1,-4,0.49
CCCN(CCC)c1cc(C)nc2nc(-c3ccccc3)nn12,-4,0.77
O=C1CC[C@@]2(CCCN(C(=O)CCn3cc(Cl)cn3)C2)CN1CCO,-1,0.21
Cc1cc(C(=O)N[C@H](c2ccncc2)C2CC2)ncc1C(N)=O,8,-1.06
Nc1ncccc1CN1CCC2(CCC(=O)N(CCc3ccncc3)C2)CC1,-8,1.52
CO[C@H]1COC[C@@H]1NC(=O)c1ccccc1C#N,-6,0.73
CC1CCCC(NC(=O)c2cc(S(=O)(=O)N3CCCC3)c[nH]2)C1C (stereo not drawn),-8,0.77
Cc1nc(CNC(=O)c2ccc3c(c2)CN(CCc2ccncc2)C3=O)no1,3,-0.43
O=S(=O)(CC1CCCC1)N[C@H]1COC[C@@H]1O,-10,1.35
NC(=O)CN1C[C@H](Nc2ccc(C(F)(F)F)cn2)[C@@H](C2CC2)C1,5,-0.7
O=C(c1ccccc1Cl)N1CCC[C@H](OCc2cc(F)cc(F)c2)C1,-9,1.45
N[C@@H]1CN(c2nc(C3CCCC3)ns2)C[C@H]1c1ccccc1,3,-0.42
COCc1nc(-c2cccnc2)nn1C1CCCCC1,-15,2.12
CC(=O)N(c1nc(CNc2ccc(CC#N)cc2)cs1)C1CC1,-6,0.65
OC1CCCCC1CCCNc1nnc(C(F)(F)F)s1 (stereo not drawn),-19,1.66
C[C@H](NC(=O)CON=C(N)CN1CCN(c2ccccc2)CC1)c1ccc(F)cc1,-6,0.75
c1cc2occc2c(NCCc2cn3c(n2)CCCC3)n1,-15,1.3
CN(C(=O)CC#N)C1CCCC1c1ccc(C(F)(F)F)cc1 (stereo not drawn),-15,1.76
C[C@H](c1ccccc1)c1cc(C(=O)N(C)Cc2ncc[nH]2)on1,1,-0.14
CC(=O)N(CCc1ccc(C)[n+]([O-])c1)c1ccccc1,-11,1.42
COc1cc(F)cc2sc(NC(=O)[C@@H](NC3CCOCC3)C(C)C)nc12,-1,0.13
